{"source": "the supplement of paper PMC3334620", "note": "Whole data set: some 33,000 sequences, median “E-score (-0.5 to 0.5)” near -0.016, cut for the highest 2% near 0.31. The list shows a part of the results.", "data": [{"biological_target": "Cst6 (UniProt P40535)", "experiment": "PBM E-score (8-mer binding enrichment) (E-score (-0.5 to 0.5)); higher = stronger / more preferred TF binding; most listed sequences are background and not binding sites", "settings": "protein concentration: 200 nM; construct: GST-DNA-binding domain", "procedure,_shortened": "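E-scores (a modified Wilcoxon-Mann-Whitney statistic) were assigned by the Universal PBM Analysis Suite to every ungapped eight-base word pooled with its reverse complement. The input came from universal all-10-mer Agilent arrays made double-stranded by primer extension and probed with GST-tagged yeast transcription factors at about 100-200 nM. Fluorescent anti-GST detected bound protein, and masliner normalised the scans.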", "values": [{"sequence": "TGGCACAA", "PBM E-score": 0.0795}, {"sequence": "ATAACTGA", "PBM E-score": 0.107}, {"sequence": "CTTCACAC", "PBM E-score": 0.0809}, {"sequence": "AGGTTCAA", "PBM E-score": 0.0809}, {"sequence": "ATAGTAGG", "PBM E-score": 0.0261}, {"sequence": "GTATCATA", "PBM E-score": 0.256}, {"sequence": "ACGTCAGA", "PBM E-score": 0.464}, {"sequence": "CGGTGAAG", "PBM E-score": -0.0753}, {"sequence": "AAGCCTTC", "PBM E-score": -0.216}, {"sequence": "CTGGACTC", "PBM E-score": -0.0699}, {"sequence": "GCCAAGCA", "PBM E-score": -0.133}, {"sequence": "ATAGCCCC", "PBM E-score": -0.277}, {"sequence": "CCATCAAA", "PBM E-score": 0.04}, {"sequence": "CAGATCAA", "PBM E-score": -0.0995}, {"sequence": "CTAATACA", "PBM E-score": 0.143}, {"sequence": "AAATAACA", "PBM E-score": 0.24}, {"sequence": "GCACACGC", "PBM E-score": -0.0553}, {"sequence": "CCAGAAGC", "PBM E-score": -0.21}, {"sequence": "TAATCTAA", "PBM E-score": 0.132}, {"sequence": "GATACGGC", "PBM E-score": 0.139}, {"sequence": "AGTGGGAT", "PBM E-score": -0.0964}, {"sequence": "CCTTCCCA", "PBM E-score": 0.0315}, {"sequence": "AAGACCCA", "PBM E-score": -0.229}, {"sequence": "CACCGTAG", "PBM E-score": -0.0487}, {"sequence": "ACTCCTAT", "PBM E-score": 0.0574}, {"sequence": "CGCCCGCG", "PBM E-score": 0.0669}, {"sequence": "CGGGTACA", "PBM E-score": -0.165}, {"sequence": "CGTTGGTC", "PBM E-score": -0.208}, {"sequence": "CCTTTCGC", "PBM E-score": -0.0224}, {"sequence": "CTACTCTC", "PBM E-score": -0.136}, {"sequence": "CCATCGCA", "PBM E-score": -0.104}, {"sequence": "GGCCTATA", "PBM E-score": -0.307}, {"sequence": "AATTTTAG", "PBM E-score": 0.0947}, {"sequence": "AGTGCGGC", "PBM E-score": 0.173}, {"sequence": "ATACGCTC", "PBM E-score": 0.0633}, {"sequence": "ACGAGCAC", "PBM E-score": -0.0131}, {"sequence": "ACCTTCAA", "PBM E-score": -0.00754}, {"sequence": "CCATCTCA", "PBM E-score": -0.157}, {"sequence": "CAAGTCGC", "PBM E-score": -0.139}, {"sequence": "AGAAATTG", "PBM E-score": 0.27}, {"sequence": "AGTGGACA", "PBM E-score": -0.0595}, {"sequence": "CGGGATAA", "PBM E-score": 0.139}, {"sequence": "AGTTCAGG", "PBM E-score": -0.229}, {"sequence": "CACTAGAA", "PBM E-score": 0.0702}, {"sequence": "CGAATTTC", "PBM E-score": 0.116}, {"sequence": "CACCTCCG", "PBM E-score": -0.0809}, {"sequence": "ATCTAGCG", "PBM E-score": -0.191}, {"sequence": "CCTTTGGC", "PBM E-score": -0.225}, {"sequence": "CGCGTATA", "PBM E-score": 0.00766}, {"sequence": "CGGATTAA", "PBM E-score": 0.0742}, {"sequence": "GTCCGAAC", "PBM E-score": -0.0189}, {"sequence": "AGGGGCAC", "PBM E-score": -0.0879}, {"sequence": "CACAAACG", "PBM E-score": 0.264}, {"sequence": "CCGTGGAC", "PBM E-score": -0.0572}, {"sequence": "CGAGGAGC", "PBM E-score": -0.0747}, {"sequence": "GCAACTAC", "PBM E-score": 0.0528}, {"sequence": "CACGGGCC", "PBM E-score": -0.236}, {"sequence": "CACGACTA", "PBM E-score": -0.192}, {"sequence": "GCTAGCCA", "PBM E-score": -0.201}, {"sequence": "GTTACCGA", "PBM E-score": -0.0392}, {"sequence": "CTCTATGC", "PBM E-score": -0.114}, {"sequence": "TAGAACAA", "PBM E-score": -0.0259}, {"sequence": "AACAACTA", "PBM E-score": 0.0393}, {"sequence": "TCCAGCGA", "PBM E-score": -0.202}, {"sequence": "TAGACCGA", "PBM E-score": -0.0348}, {"sequence": "CCTCATTC", "PBM E-score": -0.0459}, {"sequence": "GCCTAATA", "PBM E-score": -0.00299}, {"sequence": "ATGCGTCA", "PBM E-score": 0.444}, {"sequence": "ATCGTATG", "PBM E-score": 0.234}, {"sequence": "CTATAAAA", "PBM E-score": 0.123}, {"sequence": "CCAACGAA", "PBM E-score": -0.00781}, {"sequence": "CTGAACCC", "PBM E-score": -0.201}, {"sequence": "GCGACAAC", "PBM E-score": 0.127}, {"sequence": "AAGTAACC", "PBM E-score": 0.0322}, {"sequence": "GTACTCCA", "PBM E-score": -0.115}, {"sequence": "GAATTCTA", "PBM E-score": 0.162}, {"sequence": "GAAGTTCC", "PBM E-score": -0.244}, {"sequence": "CGAACCCC", "PBM E-score": -0.249}, {"sequence": "ATGTTGTC", "PBM E-score": 0.209}, {"sequence": "AGGTGCGC", "PBM E-score": -0.0797}, {"sequence": "CACGACAC", "PBM E-score": -0.00941}, {"sequence": "CCACAAGA", "PBM E-score": -0.174}, {"sequence": "CCGGCGGC", "PBM E-score": -0.195}, {"sequence": "ATAGCATG", "PBM E-score": -0.0918}, {"sequence": "GGATAAAA", "PBM E-score": 0.179}, {"sequence": "AGACACAC", "PBM E-score": 0.0262}]}]}
